# Data reported in the supplement of paper PMC8728848.
# The other results are listed elsewhere or left out.
# B1: Gal 3 (Homo sapiens), P17931 (protein)
# chain: MADNFSLHDALSGSGNPNPQGWPGAWGNQPAGAGGYPGASYPGAYPGQAPPGAYPGQAPPGAYHGAPGAYPGAPAPGVYPGPPSGPGAYPSSGQPSAPGAYPATGPYGAPAGPLIVPYNLPLPGGVVPRMLITILGTVKPNANILDFQRGNDVAFHFNPRFNENNRRVIVCNTLLDNNWGREERQSVFPFESGKPFKIQVLVEPDHFKVAVNDAHLLQYNHRVKKLNEISKLGISGDIDLTSASYTMI
# Columns and labels:
# Test in all cases: glycan array binding signal (z-score within array); higher = stronger binding
# Conditions in all cases: glycan notation: IUPAC condensed, linker removed; mutation: K176L
# [1] = target: GlcNAc6S(b1-3)Gal(b1-4)GlcNAc
# In short: (§1)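 Glycan array data were curated from 3228 arrays in the Consortium for Functional Glycomics database and kept only where the protein sequence was available. Glycan names were converted to IUPAC-condensed notation, and columns mapping to the same glycan were averaged. The binding signal is a within-array Z-score, averaged across arrays of the same protein sequence at different concentrations or buffers and across linkers. Negative Z-scores can be read as non-binding.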
# Kdn(a2-3)Gal(b1-3)GalNAc = target: Kdn(a2-3)Gal(b1-3)GalNAc
# In short: as §1
# Kdn(a2-3)Gal(b1-3)GlcNAc = target: Kdn(a2-3)Gal(b1-3)GlcNAc
# In short: as §1
# Kdn(a2-3)Gal(b1-4)Glc = target: Kdn(a2-3)Gal(b1-4)Glc
# In short: as §1
# Kdn(a2-3)Gal(b1-4)GlcNAc = target: Kdn(a2-3)Gal(b1-4)GlcNAc
# In short: as §1
# [2] = target: Kdn(a2-3)Gal(b1-4)[Fuc(a1-3)]GlcNAc
# In short: as §1
# Kdn(a2-6)Gal(b1-4)GlcNAc = target: Kdn(a2-6)Gal(b1-4)GlcNAc
# In short: as §1
# [3] = target: Man(a1-2)Man(a1-2)Man(a1-3)Man
# In short: as §1
# [4] = target: Man(a1-2)Man(a1-2)Man(a1-6)[Man(a1-3)]Man
# In short: as §1
# Man(a1-2)Man(a1-3)Man = target: Man(a1-2)Man(a1-3)Man
# In short: as §1
# [5] = target: Man(a1-2)Man(a1-3)[Man(a1-2)Man(a1-6)]Man
# In short: as §1
# [6] = target: Man(a1-2)Man(a1-3)[Man(a1-2)Man(a1-6)]Man(a1-6)[Man(a1-2)Man(a1-2)Man(a1-3)]Man
# In short: as §1
# [7] = target: Man(a1-2)Man(a1-3)[Man(a1-2)Man(a1-6)]Man(a1-6)[Man(a1-2)Man(a1-2)Man(a1-3)]Man(b1-4)GlcNAc(b1-4)GlcNAc
# In short: as §1
# [8] = target: Man(a1-2)Man(a1-3)[Man(a1-6)]Man(a1-6)[Man(a1-2)Man(a1-3)]Man(b1-4)GlcNAc(b1-4)GlcNAc
# In short: as §1
# [9] = target: Man(a1-2)Man(a1-6)[Man(a1-3)]Man(a1-6)[Man(a1-2)Man(a1-2)Man(a1-3)]Man
# In short: as §1
# [10] = target: Man(a1-2)Man(a1-6)[Man(a1-3)]Man(a1-6)[Man(a1-2)Man(a1-2)Man(a1-3)]Man(b1-4)GlcNAc(b1-4)GlcNAc
# In short: as §1
# Man(a1-3)[Man(a1-6)]Man = target: Man(a1-3)[Man(a1-6)]Man
# In short: as §1
# [11] = target: Man(a1-3)[Man(a1-6)]Man(a1-6)[Man(a1-2)Man(a1-3)]Man(b1-4)GlcNAc(b1-4)GlcNAc
# In short: as §1
# [12] = target: Man(a1-3)[Man(a1-6)]Man(a1-6)[Man(a1-3)]Man
# In short: as §1
# [13] = target: Man(a1-3)[Man(a1-6)]Man(a1-6)[Man(a1-3)]Man(b1-4)GlcNAc(b1-4)GlcNAc
# In short: as §1
# [14] = target: Man(a1-3)[Man(a1-6)]Man(b1-4)GlcNAc(b1-4)GlcNAc
# In short: as §1
# Man(a1-6)Man = target: Man(a1-6)Man
# In short: as §1
# Man(b1-4)GlcNAc = target: Man(b1-4)GlcNAc
# In short: as §1
# Neu5Ac(a2-3)Gal = target: Neu5Ac(a2-3)Gal
# In short: as §1
# [15] = target: Neu5Ac(a2-3)Gal(b1-3)GalNAc
# In short: as §1
# [16] = target: Neu5Ac(a2-3)Gal(b1-3)GalNAc(b1-3)Gal(a1-4)Gal(b1-4)Glc
# In short: as §1
# [17] = target: Neu5Ac(a2-3)Gal(b1-3)GalNAc(b1-4)[Neu5Ac(a2-3)]Gal(b1-4)Glc
# In short: as §1
# [18] = target: Neu5Ac(a2-3)Gal(b1-3)GalNAc6S
# In short: as §1
# [19] = target: Neu5Ac(a2-3)Gal(b1-3)GlcNAc
# In short: as §1
# [20] = target: Neu5Ac(a2-3)Gal(b1-3)GlcNAc(b1-2)Man(a1-3)[Neu5Ac(a2-3)Gal(b1-3)GlcNAc(b1-2)Man(a1-6)]Man(b1-4)GlcNAc(b1-4)GlcNAc
# In short: as §1
# [21] = target: Neu5Ac(a2-3)Gal(b1-3)GlcNAc(b1-3)Gal(b1-3)GlcNAc
# In short: as §1
# [22] = target: Neu5Ac(a2-3)Gal(b1-3)GlcNAc(b1-3)Gal(b1-4)GlcNAc
# In short: as §1
# [23] = target: Neu5Ac(a2-3)Gal(b1-3)GlcNAc(b1-3)GalNAc
# In short: as §1
# [24] = target: Neu5Ac(a2-3)Gal(b1-3)GlcNAc6S
# In short: as §1
# [25] = target: Neu5Ac(a2-3)Gal(b1-3)[Fuc(a1-4)]GlcNAc
# In short: as §1
# [26] = target: Neu5Ac(a2-3)Gal(b1-3)[Fuc(a1-4)]GlcNAc(b1-3)Gal(b1-3)[Fuc(a1-4)]GlcNAc
# In short: as §1
# [27] = target: Neu5Ac(a2-3)Gal(b1-3)[Fuc(a1-4)]GlcNAc(b1-3)Gal(b1-4)[Fuc(a1-3)]GlcNAc
# In short: as §1
# [28] = target: Neu5Ac(a2-3)Gal(b1-3)[Neu5Ac(a2-3)Gal(b1-4)]GlcNAc
# In short: as §1
# [29] = target: Neu5Ac(a2-3)Gal(b1-3)[Neu5Ac(a2-6)]GalNAc
# In short: as §1
# Neu5Ac(a2-3)Gal(b1-4)Glc = target: Neu5Ac(a2-3)Gal(b1-4)Glc
# In short: as §1
# [30] = target: Neu5Ac(a2-3)Gal(b1-4)GlcNAc
# In short: as §1
# [31] = target: Neu5Ac(a2-3)Gal(b1-4)GlcNAc(b1-2)Man(a1-3)[GlcNAc(b1-2)Man(b1-4)GlcNAc(b1-2)Man(a1-6)]Man(b1-4)GlcNAc(b1-4)GlcNAc
# In short: as §1
# [32] = target: Neu5Ac(a2-3)Gal(b1-4)GlcNAc(b1-2)Man(a1-3)[Neu5Ac(a2-6)Gal(b1-4)GlcNAc(b1-2)Man(a1-6)]Man(b1-4)GlcNAc(b1-4)GlcNAc
# In short: as §1
# [33] = target: Neu5Ac(a2-3)Gal(b1-4)GlcNAc(b1-3)Gal(b1-3)GlcNAc
# In short: as §1
# [34] = target: Neu5Ac(a2-3)Gal(b1-4)GlcNAc(b1-3)Gal(b1-4)GlcNAc
# In short: as §1
binder,measurement,setting,value
B1,glycan array binding signal (z-score),[1],-0.267
same,glycan array binding signal (z-score),Kdn(a2-3)Gal(b1-3)GalNAc,-0.264
same,glycan array binding signal (z-score),Kdn(a2-3)Gal(b1-3)GlcNAc,-0.255
same,glycan array binding signal (z-score),Kdn(a2-3)Gal(b1-4)Glc,-0.262
same,glycan array binding signal (z-score),Kdn(a2-3)Gal(b1-4)GlcNAc,-0.268
same,glycan array binding signal (z-score),[2],-0.27
same,glycan array binding signal (z-score),Kdn(a2-6)Gal(b1-4)GlcNAc,-0.266
same,glycan array binding signal (z-score),[3],-0.26
same,glycan array binding signal (z-score),[4],-0.268
same,glycan array binding signal (z-score),Man(a1-2)Man(a1-3)Man,-0.268
same,glycan array binding signal (z-score),[5],-0.27
same,glycan array binding signal (z-score),[6],-0.269
same,glycan array binding signal (z-score),[7],-0.263
same,glycan array binding signal (z-score),[8],-0.27
same,glycan array binding signal (z-score),[9],-0.269
same,glycan array binding signal (z-score),[10],-0.263
same,glycan array binding signal (z-score),Man(a1-3)[Man(a1-6)]Man,-0.265
same,glycan array binding signal (z-score),[11],-0.267
same,glycan array binding signal (z-score),[12],-0.269
same,glycan array binding signal (z-score),[13],-0.266
same,glycan array binding signal (z-score),[14],-0.271
same,glycan array binding signal (z-score),Man(a1-6)Man,-0.264
same,glycan array binding signal (z-score),Man(b1-4)GlcNAc,-0.254
same,glycan array binding signal (z-score),Neu5Ac(a2-3)Gal,-0.267
same,glycan array binding signal (z-score),[15],-0.269
same,glycan array binding signal (z-score),[16],-0.269
same,glycan array binding signal (z-score),[17],-0.269
same,glycan array binding signal (z-score),[18],-0.271
same,glycan array binding signal (z-score),[19],-0.266
same,glycan array binding signal (z-score),[20],-0.272
same,glycan array binding signal (z-score),[21],1.24
same,glycan array binding signal (z-score),[22],0.372
same,glycan array binding signal (z-score),[23],-0.268
same,glycan array binding signal (z-score),[24],-0.268
same,glycan array binding signal (z-score),[25],-0.27
same,glycan array binding signal (z-score),[26],-0.267
same,glycan array binding signal (z-score),[27],-0.269
same,glycan array binding signal (z-score),[28],-0.269
same,glycan array binding signal (z-score),[29],-0.267
same,glycan array binding signal (z-score),Neu5Ac(a2-3)Gal(b1-4)Glc,-0.265
same,glycan array binding signal (z-score),[30],-0.267
same,glycan array binding signal (z-score),[31],-0.266
same,glycan array binding signal (z-score),[32],-0.266
same,glycan array binding signal (z-score),[33],-0.27
same,glycan array binding signal (z-score),[34],-0.267
